Measurements reported in the RNAGym collection of RNA variant scans (doi:10.1093/nar/gkz1192).
Read counts are not given, so values of variants with three or more changes are uncertain.

B1: CPEB3 Ribozyme (parent)
chain: UAACAGGGGGCCACAGCAGAAGCGUUCACGUCGCAGCCCCUGUCAGAUUCUGGUGAAUCUGCGAAUUCUGCUGUAUAUCUC

Variants of: B1
Assay: self-cleavage, relative activity (ratio to wild type); higher = more cleavage; in vitro, sequencing
Procedure, shortened: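 For each CPEB3 ribozyme variant, relative activity is its cleaved/total read fraction divided by the unmutated ribozyme's. Barcoded error-prone PCR libraries were transcribed by T7 RNA polymerase (5 hours, 37°C) and held in DNase I for 15 min before an EDTA stop, with cleavage occurring throughout. Template-switching reverse transcription and Illumina sequencing were used to read the RNAs. A 5-read minimum applied, and results are the mean of three batches.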

Row | Variant | self-cleavage
1 | G10C U43A A64G | 0.16
2 | G10C U43C U48C U51C A56G U66C | 0.06
3 | G10C U48A U49C U80A | 0.1
4 | G10C U51C A56G U78A | 0.04
5 | G10C U58A G63C U67C | 0.06
6 | G10C U60C A64G | 0.11
7 | G10U A13G A20U G61C U66C U72C | 0.06
8 | G10U A13U A18U U43C | 0.13
9 | G10U A15G A45U U48C A56G U69A U74A | 0.05
10 | G10U A18C U31C U49C U60C | 0.13
11 | G10U A20G A64U | 0.13
12 | G10U A20G A64U A77G | 0.15
13 | G10U A20U A57U | 0.1
14 | G10U A21G C50U U67A | 0.17
15 | G10U A21G G36C U54A G63A U66C U69A | 0.04
16 | G10U A28G A65G U69A U72G U74A U80A | 0.04
17 | G10U A28G C32U A45C | 0.05
18 | G10U A35G C37U C81A | 0.73
19 | G10U A35G U43A A64U U72C | 0.17
20 | G10U A56G A77G U80A | 0.05
21 | G10U A57G A64G U69C | 0.05

Row | Variant | self-cleavage
22 | G10U C11U A20U | 0.14
23 | G10U C12U A20U | 0.07
24 | G10U C27A U67C U78A | 0.03
25 | G10U C29A A57G | 0.05
26 | G10U C29U U41C | 0.08
27 | G10U C32U A56G | 0.05
28 | G10U C34G C40A A45U A47G U54A U60C | 0.02
29 | G10U G16C U43A A64U U69C | 0.07
30 | G10U G24A U26C U43C A77G | 0.11
31 | G10U G24C U80G | 0.13
32 | G10U U26A U41A C62U U67C | 0.1
33 | G10U U26A U72C C81U | 0.05
34 | G10U U31C A57G C71G | 0.06
35 | G10U U41A U51A C62U U67C | 0.09
36 | G10U U41C G63U U69C U74A | 0.05
37 | G10U U41C G63U U74A | 0.46
38 | G10U U48A U80C | 0.17
39 | C11A A13G U31A | 0.41
40 | C11A A13G U31A C44G A57G U67C A77U | 0.02
41 | C11A A13U U31A A57G G61A A64G C68A | 0.04
42 | C11A A13U U54A U66C | 0.05

Row | Variant | self-cleavage
43 | C11A A15C A45C | 0.06
44 | C11A A15C C38A U48C A77U | 0.04
45 | C11A A15G U80C | 0.32
46 | C11A A15U A35C U41C U72C | 0.54
47 | C11A A15U U25C U51A U60C G61A | 0.07
48 | C11A A18C A57G A77U | 0.05
49 | C11A A18C U26A | 0.09
50 | C11A A18G U26A U54G A56U A77U | 0.05
51 | C11A A18G U31C U54C | 0.07
52 | C11A A20G G33A U43C | 0.3
53 | C11A A21G A45G | 0.34
54 | C11A A21G C23U | 0.26
55 | C11A A21G C23U A28G A35G G36C | 0.03
56 | C11A A21G U31A C34G | 0.04
57 | C11A A21G U43C U48C U51C U67C U78C | 0.04
58 | C11A A21U G30A U54G U60C | 0.05
59 | C11A A28U A45G | 0.06
60 | C11A A28U C81G | 0.13
61 | C11A A28U U43A C59G | 0.06
62 | C11A A28U U67A | 0.32
63 | C11A A45G A64U U67A | 0.06

Row | Variant | self-cleavage
64 | C11A A45G U78A | 0.38
65 | C11A A57G A65G U72C | 0.03
66 | C11A A75G U78C | 0.06
67 | C11A C27A C38A U60A A64C | 0.06
68 | C11A C32U A56G U60A U67C | 0.05
69 | C11A C32U C38G | 0.05
70 | C11A G30A A35G U43C A45U A56G | 0.05
71 | C11A G30U A56G | 0.08
72 | C11A G33A U43A | 0.32
73 | C11A G33U U43C | 0.08
74 | C11A G46C U51A C62U | 0.13
75 | C11A G53U U72C | 0.35
76 | C11A U25C U31G | 0.05
77 | C11A U25G U54A U66C | 0.05
78 | C11A U26A U31A U60C U66C U76C | 0.07
79 | C11A U26C A35U U54C U80C | 0.05
80 | C11A U26C C40A U69A U72C | 0.1
81 | C11A U26C C50G U69C | 0.09
82 | C11A U31C A45G U76C | 0.06
83 | C11A U31G U48C U69A U72A | 0.13
